Experimental data taken from the supplement of paper PMC8728848.
The list shows a part of the results.

Experiments:
Test in all cases: glycan array binding signal (z-score within array); higher = stronger binding
Settings in all cases: glycan notation: IUPAC condensed, linker removed
[1] = target: GlcNAc(b1-3)Gal(b1-4)GlcNAc(b1-6)[Gal(b1-3)]GalNAc
How it was run: (§1)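 Glycan array binding is given as a within-array Z-score, which can be read as non-binding when negative. The arrays, 3228 of them, came from the Consortium for Functional Glycomics database and were retained only where the protein sequence was available. Z-scores were averaged across arrays of the same protein sequence at different concentrations or buffers and across linkers.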

[2] = target: GlcNAc(b1-3)Gal(b1-4)GlcNAc(b1-6)[GlcNAc(b1-3)Gal(b1-3)]GalNAc
How it was run: as §1

[3] = target: GlcNAc(b1-3)Gal(b1-4)GlcNAc(b1-6)[GlcNAc(b1-3)]Gal(b1-4)GlcNAc
How it was run: as §1

GlcNAc(b1-3)GalNAc = target: GlcNAc(b1-3)GalNAc
How it was run: as §1

GlcNAc(b1-3)Man = target: GlcNAc(b1-3)Man
How it was run: as §1

[4] = target: GlcNAc(b1-3)[GlcNAc(b1-4)][GlcNAc(b1-6)]GlcNAc
How it was run: as §1

[5] = target: GlcNAc(b1-3)[GlcNAc(b1-6)]Gal(b1-4)GlcNAc
How it was run: as §1

[6] = target: GlcNAc(b1-3)[GlcNAc(b1-6)]GalNAc
How it was run: as §1

[7] = target: GlcNAc(b1-3)[GlcNAc(b1-6)]GlcNAc
How it was run: as §1

[8] = target: GlcNAc(b1-4)Gal(b1-4)GlcNAc
How it was run: as §1

GlcNAc(b1-4)GlcNAc = target: GlcNAc(b1-4)GlcNAc
How it was run: as §1

[9] = target: GlcNAc(b1-4)GlcNAc(b1-4)GlcNAc
How it was run: as §1

[10] = target: GlcNAc(b1-4)GlcNAc(b1-4)GlcNAc(b1-4)GlcNAc(b1-4)GlcNAc
How it was run: as §1

[11] = target: GlcNAc(b1-4)GlcNAc(b1-4)GlcNAc(b1-4)GlcNAc(b1-4)GlcNAc(b1-4)GlcNAc
How it was run: as §1

[12] = target: GlcNAc(b1-4)[GlcNAc(b1-6)]GalNAc
How it was run: as §1

[13] = target: GlcNAc(b1-6)Gal(b1-4)GlcNAc
How it was run: as §1

GlcNAc(b1-6)GalNAc = target: GlcNAc(b1-6)GalNAc
How it was run: as §1

[14] = target: GlcNAc6S(b1-3)Gal(b1-4)GlcNAc
How it was run: as §1

Kdn(a2-3)Gal(b1-3)GalNAc = target: Kdn(a2-3)Gal(b1-3)GalNAc
How it was run: as §1

Kdn(a2-3)Gal(b1-3)GlcNAc = target: Kdn(a2-3)Gal(b1-3)GlcNAc
How it was run: as §1

Kdn(a2-3)Gal(b1-4)Glc = target: Kdn(a2-3)Gal(b1-4)Glc
How it was run: as §1

Kdn(a2-3)Gal(b1-4)GlcNAc = target: Kdn(a2-3)Gal(b1-4)GlcNAc
How it was run: as §1

[15] = target: Kdn(a2-3)Gal(b1-4)[Fuc(a1-3)]GlcNAc
How it was run: as §1

Kdn(a2-6)Gal(b1-4)GlcNAc = target: Kdn(a2-6)Gal(b1-4)GlcNAc
How it was run: as §1

[16] = target: Man(a1-2)Man(a1-2)Man(a1-3)Man
How it was run: as §1

[17] = target: Man(a1-2)Man(a1-2)Man(a1-3)[Man(a1-2)Man(a1-3)[Man(a1-2)Man(a1-6)]Man(a1-6)]Man(b1-4)GlcNAc(b1-4)GlcNAc
How it was run: as §1

[18] = target: Man(a1-2)Man(a1-2)Man(a1-3)[Man(a1-2)Man(a1-6)[Man(a1-3)]Man(a1-6)]Man(b1-4)GlcNAc(b1-4)GlcNAc
How it was run: as §1

[19] = target: Man(a1-2)Man(a1-2)Man(a1-6)[Man(a1-3)]Man
How it was run: as §1

Man(a1-2)Man(a1-3)Man = target: Man(a1-2)Man(a1-3)Man
How it was run: as §1

[20] = target: Man(a1-2)Man(a1-3)[Man(a1-2)Man(a1-6)]Man
How it was run: as §1

[21] = target: Man(a1-2)Man(a1-3)[Man(a1-2)Man(a1-6)]Man(a1-6)[Man(a1-2)Man(a1-2)Man(a1-3)]Man
How it was run: as §1

[22] = target: Man(a1-2)Man(a1-3)[Man(a1-2)Man(a1-6)]Man(a1-6)[Man(a1-2)Man(a1-2)Man(a1-3)]Man(b1-4)GlcNAc(b1-4)GlcNAc
How it was run: as §1

[23] = target: Man(a1-2)Man(a1-3)[Man(a1-3)[Man(a1-6)]Man(a1-6)]Man(b1-4)GlcNAc(b1-4)GlcNAc
How it was run: as §1

[24] = target: Man(a1-2)Man(a1-3)[Man(a1-6)]Man(a1-6)[Man(a1-2)Man(a1-3)]Man(b1-4)GlcNAc(b1-4)GlcNAc
How it was run: as §1

[25] = target: Man(a1-2)Man(a1-6)[Man(a1-3)]Man(a1-6)[Man(a1-2)Man(a1-2)Man(a1-3)]Man
How it was run: as §1

[26] = target: Man(a1-2)Man(a1-6)[Man(a1-3)]Man(a1-6)[Man(a1-2)Man(a1-2)Man(a1-3)]Man(b1-4)GlcNAc(b1-4)GlcNAc
How it was run: as §1

Man(a1-3)[Man(a1-6)]Man = target: Man(a1-3)[Man(a1-6)]Man
How it was run: as §1

B1: MGL1 (Mus musculus), P49300 (protein)
chain: MIYENLQNSRIEEKTQEPGKAPSQSFLWRILSWTHLLLFSLGLSLLLLVVVSVIGSQNSQLRRDLGTLRATLDNTTSKIKAEFQSLDSRADSFEKGISSLKVDVEDHRQELQAGRDLSQKVTSLESTVEKREQALKTDLSDLTDHVQQLRKDLKALTCQLANLKNNGSEVACCPLHWTEHEGSCYWFSESEKSWPEADKYCRLENSHLVVVNSLEEQNFLQNRLANVVSWIGLTDQNGPWRWVDGTDFEKGFKNWAPLQPDNWFGHGLGGGEDCAHITTGGPWNDDVCQRTFRWICEMKLAKES
- glycan array binding signal (z-score) [1]: -1
- glycan array binding signal (z-score) [2]: -0.907
- glycan array binding signal (z-score) [3]: -0.208
- glycan array binding signal (z-score) (GlcNAc(b1-3)GalNAc): -0.669
- glycan array binding signal (z-score) (GlcNAc(b1-3)Man): -0.612
- glycan array binding signal (z-score) [4]: 0.442
- glycan array binding signal (z-score) [5]: -0.194
- glycan array binding signal (z-score) [6]: -0.368
- glycan array binding signal (z-score) [7]: -0.161
- glycan array binding signal (z-score) [8]: -0.597
- glycan array binding signal (z-score) (GlcNAc(b1-4)GlcNAc): -0.241
- glycan array binding signal (z-score) [9]: -0.529
- glycan array binding signal (z-score) [10]: -0.509
- glycan array binding signal (z-score) [11]: -0.497
- glycan array binding signal (z-score) [12]: -0.44
- glycan array binding signal (z-score) [13]: -0.234
- glycan array binding signal (z-score) (GlcNAc(b1-6)GalNAc): 0.042
- glycan array binding signal (z-score) [14]: -0.476
- glycan array binding signal (z-score) (Kdn(a2-3)Gal(b1-3)GalNAc): -0.08
- glycan array binding signal (z-score) (Kdn(a2-3)Gal(b1-3)GlcNAc): -0.559
- glycan array binding signal (z-score) (Kdn(a2-3)Gal(b1-4)Glc): 0.226
- glycan array binding signal (z-score) (Kdn(a2-3)Gal(b1-4)GlcNAc): 0.121
- glycan array binding signal (z-score) [15]: 0.025
- glycan array binding signal (z-score) (Kdn(a2-6)Gal(b1-4)GlcNAc): -1.03
- glycan array binding signal (z-score) [16]: -0.171
- glycan array binding signal (z-score) [17]: -0.167
- glycan array binding signal (z-score) [18]: -0.136
- glycan array binding signal (z-score) [19]: -0.582
- glycan array binding signal (z-score) (Man(a1-2)Man(a1-3)Man): -0.539
- glycan array binding signal (z-score) [20]: -0.06
- glycan array binding signal (z-score) [21]: -0.381
- glycan array binding signal (z-score) [22]: -0.432
- glycan array binding signal (z-score) [23]: -0.147
- glycan array binding signal (z-score) [24]: 0.311
- glycan array binding signal (z-score) [25]: -0.253
- glycan array binding signal (z-score) [26]: -0.875
- glycan array binding signal (z-score) (Man(a1-3)[Man(a1-6)]Man): -0.167
